Publication PMC4336329 (PLoS ONE, 2015)
The whole screen tested about 310,000 compounds, of which about 2,200 (0.71%) showed an effect of 50% or more. The effect is printed as a negative number. The list shows a part of the results.

What follows are compounds tested against human ether-à-go-go-related gene (hERG) potassium channel (human, UniProt Q12809) (assay: primary screen, population patch clamp on CHO cells stably expressing hERG).
Sequence of human ether-à-go-go-related gene (hERG) potassium channel (Q12809 whole entry, looked up): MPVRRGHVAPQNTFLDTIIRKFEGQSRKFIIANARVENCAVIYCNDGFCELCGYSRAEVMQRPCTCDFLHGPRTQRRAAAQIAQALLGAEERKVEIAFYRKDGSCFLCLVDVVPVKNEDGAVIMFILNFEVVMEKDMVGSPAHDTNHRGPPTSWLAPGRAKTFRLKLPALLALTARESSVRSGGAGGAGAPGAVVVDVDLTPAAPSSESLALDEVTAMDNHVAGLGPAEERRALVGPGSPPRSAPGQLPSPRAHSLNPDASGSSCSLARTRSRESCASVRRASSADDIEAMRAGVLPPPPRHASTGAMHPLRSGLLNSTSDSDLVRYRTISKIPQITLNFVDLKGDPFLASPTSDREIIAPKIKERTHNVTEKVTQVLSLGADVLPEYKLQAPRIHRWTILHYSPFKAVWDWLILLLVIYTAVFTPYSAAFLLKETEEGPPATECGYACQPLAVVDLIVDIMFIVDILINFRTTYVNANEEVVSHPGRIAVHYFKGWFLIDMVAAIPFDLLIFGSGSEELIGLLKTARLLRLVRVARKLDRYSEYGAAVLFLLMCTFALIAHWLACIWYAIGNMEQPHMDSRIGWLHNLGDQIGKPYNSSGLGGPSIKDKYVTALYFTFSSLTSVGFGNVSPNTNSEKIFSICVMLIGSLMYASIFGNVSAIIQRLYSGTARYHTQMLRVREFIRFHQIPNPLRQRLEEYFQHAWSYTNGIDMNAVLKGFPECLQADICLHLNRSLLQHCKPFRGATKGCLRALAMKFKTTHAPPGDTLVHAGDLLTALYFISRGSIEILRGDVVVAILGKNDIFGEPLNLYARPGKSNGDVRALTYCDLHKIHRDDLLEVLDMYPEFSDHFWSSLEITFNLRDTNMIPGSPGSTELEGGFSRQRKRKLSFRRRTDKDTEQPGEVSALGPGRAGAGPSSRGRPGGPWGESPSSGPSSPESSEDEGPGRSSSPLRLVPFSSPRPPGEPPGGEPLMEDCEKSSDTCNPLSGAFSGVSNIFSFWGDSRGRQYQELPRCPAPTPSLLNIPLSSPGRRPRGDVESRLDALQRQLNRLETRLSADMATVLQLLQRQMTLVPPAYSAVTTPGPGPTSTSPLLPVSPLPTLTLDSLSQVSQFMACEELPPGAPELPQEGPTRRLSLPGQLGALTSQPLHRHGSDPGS

Row | Structure (SMILES) | hERG current change (%, negative = inhibition) at 1uM
1 | Cc1nnc(SCC(=O)Nc2ccc(C(N)=O)cc2)n1-c1ccccc1 | 19.2%
2 | CCN=c1scc(-c2cccs2)n1/N=C/c1cc(OC)ccc1O | 12.9%
3 | O=C(NNc1cc(N2CCCC2)nc(N2CCCC2)n1)c1ccc([N+](=O)[O-])cc1 | -0.717%
4 | O=C(N=c1ccn(-c2nc3ccccc3nc2NS(=O)(=O)c2ccc(Cl)cc2)cc1)c1cccs1 | 17.5%
5 | CCN(CC(=O)Nc1ccccc1OC)C(=O)COc1ccc2ccccc2c1 | 11.3%
6 | COCCN(C(=O)COC(=O)/C=C/c1ccc(C)o1)c1c(N)n(Cc2ccccc2)c(=O)[nH]c1=O | 8.42%
7 | O=C1N(Cc2ccc3c(c2)OCO3)c2ccccc2C1(O)c1c[nH]c2ccccc12 (stereo not shown) | 14.7%
8 | Cc1onc(-c2ccccc2Cl)c1C(=O)NCc1ccccc1F | 11.3%
9 | CCOC(=O)N1CCC(N2Cc3cccc(C(=O)N4CCN(c5cccc(Cl)c5)CC4)c3C2=O)CC1 | -16.8%
10 | O=C(O)c1cccc(N2C(=O)CSC2c2c(F)cccc2Cl)c1 (stereo not shown) | 10.3%
11 | CC1(C)c2[nH]c3ccccc3c2C[C@H]2C(=O)N(Cc3ccccc3)C(=O)N21 | 4.95%
12 | Cc1noc(C)c1CSc1nnc2ccc3ccccc3n12 | -8.33%
13 | O=c1cc(CN2CCOCC2)nc(C2CC2)[nH]1 | 7.1%
14 | CC(=O)C1=C(O)C(=O)N(c2nccs2)C1c1ccccc1F (stereo not shown) | 16.3%
15 | COC(=O)c1ccc(C(=O)NC2CCCc3c2cnn3-c2ccc(C)c(C)c2)cc1 (stereo not shown) | 12.4%
16 | Cc1ccc(S(=O)(=O)CC(=O)N2CCN(c3ccc(F)cc3)CC2)cc1 | -13.5%
17 | COc1ccc(CN2CCN(C(=O)CC(C)C)CC2)c(OC)c1OC | 19.3%
18 | Nc1cc(C(=O)O)c(Oc2ccc(Cl)cc2Cl)cc1C(=O)O | 4.01%
19 | CN(C)S(=O)(=O)c1ccc(C(=O)OCC(=O)c2csc(N3CCCCC3)n2)cc1 | 8.35%
20 | O=C(COC(=O)CSc1ccc(Cl)cc1)Nc1ccccc1 | 7.99%
21 | COc1ccc(NC(=O)COC(=O)c2ccc(OCc3ccc(Cl)cc3Cl)c(OC)c2)c(OC)c1 | 9.48%
22 | CSc1nc2sc3c(c2c(=O)n1C)CCC(C)C3 (stereo not shown) | 12.1%

Row | Structure (SMILES) | hERG current change (%, negative = inhibition) at 1uM
23 | COc1ccc(C2CC(c3ccccc3)=NN2C(=O)COC(=O)c2ccc(Cl)nc2)cc1 (stereo not shown) | 11%
24 | Cc1ccccc1C(=O)c1ccc2c(c1)n(C)c(=O)n2C | 5.59%
25 | CN(C(=O)CCNC(=O)N1CC(=O)Nc2ccccc21)C1CCCCC1 | 25.2%
26 | Cc1cc(C)cc(NC(=O)C2CCN(S(=O)(=O)c3c(C)n[nH]c3C)CC2)c1 | 1.58%
27 | COc1ccccc1CNc1ccc([N+](=O)[O-])cc1C | 11.3%
28 | CS(=O)(=O)N1CCN(c2ccccc2NC(=S)NC(=O)c2ccccc2[N+](=O)[O-])CC1 | 15.6%
29 | COc1ccccc1CCc1nnc(CCC(=O)N(C)Cc2cccc3cnccc23)o1 | -53.3%
30 | O=C(COc1ccccc1Cl)N(Cc1cccs1)C1CCS(=O)(=O)C1 (stereo not shown) | 9.15%
31 | Cc1c(NC(=O)c2ccc(-c3ccccc3)cc2)cccc1C(=O)O | -0.165%
32 | O=C(c1ccccc1)c1ccccc1N1C(=O)C=CC1=O | 10.8%
33 | COc1cc(/C=N/Nc2nc(C)cc(=O)[nH]2)ccc1O | 13.9%
34 | O=C(Nc1cccc([N+](=O)[O-])c1)N1CCCCCC1 | 20.5%
35 | O=c1c2ccccc2nnn1CSc1nnc(Nc2ccccc2)s1 | 0.932%
36 | CCOCC(=O)Nc1c(C(=O)Nc2ccccc2OC)oc2ccccc12 | 2.06%
37 | CCC(C)[C@H](NC(=O)N1CC(=O)Nc2ccccc21)C(=O)Nc1ccccc1C (stereo partly shown) | 11.6%
38 | O=C1c2cccnc2C(=O)N1Cc1ccc(S(=O)(=O)N2CCOc3ccccc32)cc1 | 16.4%
39 | C/C(=N/NC(=O)c1cccnc1)C1=C(O)CC(C)(C)CC1=O | 18.4%
40 | CN(CCN1CCOCC1)C(=O)CC1C(=O)NCCN1Cc1ccccc1F (stereo not shown) | 15.1%
41 | O=C(c1cnn2c(C(F)F)cc(-c3ccccc3)nc12)N1CCN2CCCC2C1 (stereo not shown) | -10.6%
42 | COc1ccc(-c2noc(CCCC(=O)NC3CCCCC3)n2)cc1 | 3.07%
43 | CC1C(=O)N2CCCc3cc(NC(=O)C4CCCCC4)cc1c32 (stereo not shown) | 10.7%
44 | O=C(c1cc(COc2ccccc2)on1)N1CCCC(CN2CCOCC2)C1 (stereo not shown) | 4.91%

Row | Structure (SMILES) | hERG current change (%, negative = inhibition) at 1uM
45 | COc1ccc(-c2nnc(CSc3nnc(-c4ccncc4)n3C3CCCCC3)o2)cc1OC | -17.9%
46 | CC(=O)c1ccc(NC(=S)NCCCn2ccnc2)cc1 | 10.9%
47 | Cc1cccc(C(=O)NCC(=O)NC(C)CCc2ccccc2)c1 (stereo not shown) | 12.4%
48 | CC(OC(=O)Cc1ccc(F)cc1)C(=O)NCc1ccc2c(c1)OCO2 (stereo not shown) | -1.5%
49 | Cc1ccccc1OCC(=O)Nc1nc2ccccc2[nH]1 | 6.74%
50 | CN(Cc1ccc(F)cc1)Cc1nc(-c2cnccn2)no1 | 17.9%
51 | COc1cccc(CNc2nc(SC)ncc2CO)c1 | 18.8%
52 | CCOc1ccc(N2C(=O)CS/C2=N/NC(=O)COc2ccc3ccccc3c2)cc1 | 11.8%
53 | O=C(OCC(=O)N1CCCC1)c1ccc(OC(F)(F)F)cc1 | 0.394%
54 | O=C(Nc1ccc(F)cc1)NC1CCN(Cc2ccccc2)CC1 | -6.06%
55 | COc1ccc([N+](=O)[O-])cc1CSc1nnc(NC(C)=O)s1 | 8.56%
56 | CCOc1cc(C(=O)Nc2ccccc2N2CCOCC2)ccc1OCC(=O)N1CCCCC1 | 7.14%
57 | Cc1nnc2ccc(N3CCOCC3)nn12 | 5.81%
58 | Cc1ccc(OCC(=O)Oc2ccccc2[N+](=O)[O-])cc1 | 7.64%
59 | Fc1ccc(-n2c(-c3ccc4ccccc4n3)n[nH]c2=S)cc1 | 17.1%
60 | Cc1cccc(C)c1NC(=O)Cn1c(CN2CCCCC2)nc2ccccc2c1=O | 9.77%
61 | COc1cc(CC2COC(c3ccc(O)c(OC)c3)C2COC(C)=O)ccc1O (stereo not shown) | -0.988%
62 | CCN(CC)C(=O)CSc1ncccc1-c1nc2ccccc2[nH]1 | 12.9%
63 | CN1CCN(C(CNC(=O)C(=O)Nc2ccc3c(c2)OCCO3)c2ccc(F)cc2)CC1 (stereo not shown) | -3.51%
64 | O=C(OCC(=O)N1CCc2ccccc21)c1cccnc1 | 1.03%
65 | Cn1c(NNC(=O)CCC2CCCCC2)cc(=O)n(C)c1=O | 13.3%
66 | CN(Cc1ccccc1)C(=O)c1[nH]cnc1C(=O)NCC(=O)OCc1ccccc1 | 0.241%

Row | Structure (SMILES) | hERG current change (%, negative = inhibition) at 1uM
67 | Cc1ccc(-c2nc(S(=O)(=O)c3ccc(C)cc3)c(SCC(N)=O)o2)cc1 | 7.75%
68 | Cc1ccccc1N1CCN(CC(=O)NCc2ccc(Cl)cc2)CC1 | 17.9%
69 | CCC(=O)NC(=S)Nc1c(C)cc(Br)cc1C | -0.392%
70 | COc1ccccc1CNCc1cc(=O)oc2c(C)c(C)ccc12 | 3.32%
71 | O=S(=O)(c1ccc(-c2ccon2)s1)N1CCN(c2ccccn2)CC1 | 9.78%
72 | COCCNC(=O)c1ccc(N(C)S(=O)(=O)c2ccc(OC)c(OC)c2)cc1 | 7.17%
73 | O=c1oc2cc(OCc3ccc([N+](=O)[O-])cc3)ccc2c2c1CCCC2 | 1.05%
74 | CCCCN1CC(=O)N2Cc3[nH]c4ccccc4c3C[C@H]2C1=O | 15.5%
75 | CC1CN(CC(=O)NCc2ccc(Cl)cc2)CC(C)O1 (stereo not shown) | 16.6%
76 | N/C(=N\O)c1cccc(CS(=O)(=O)c2ccccn2)c1 | 19%
77 | CC(=O)Nc1ccc(Nc2cc(-c3ccccc3)nc3ncnn23)cc1 | 15.2%
78 | COc1ccc(OC)c(S(=O)(=O)N2CCNCC2)c1 | 8%
79 | O=C(c1ccc(COc2ccc3c(c2)CCC3)o1)N1CCN(c2ccccc2)CC1 | 14.5%
80 | O=C(CNC(=S)N(CCCN1CCOCC1)Cc1cccs1)NC1CCCCC1 | 4.41%
81 | CCC(=O)Nc1ccc(Cl)c(NC(=O)c2cccnc2)c1 | 9.91%
82 | Cc1csc(=O)n1CCC(=O)OCC(=O)Nc1ncc(Cl)cc1Cl | 6.26%
83 | COCn1c(COc2ccc3ccccc3c2)nc2ccccc21 | 9.13%
84 | CCC(=O)N1c2ccc(C)cc2C2=NNC(=S)NC21O (stereo not shown) | 8.47%
85 | O=C(O)CSc1nnc(Cc2cccc3ccccc23)n1-c1cc(C(F)(F)F)cc(C(F)(F)F)c1 | 12.9%
86 | O=C(CNCc1ccccc1Cl)NCc1ccco1.O=C(O)C(=O)O | 11.1%
87 | C=CCC(O)(CC=C)C(C)N.Cl (stereo not shown) | 28.3%
88 | COc1ccccc1N1CCN(C(=O)C(=O)c2cn(CC(=O)N3CCOCC3)c3ccccc23)CC1 | 16.7%
